# Assay results from article PMC5515408.
# The other results are listed elsewhere or left out. At the low end of the ranking the order means little.
# Molecular target: MAX:MAX (p21) (UniProt P61244-2)
# Assay: protein-binding microarray (anti-MAX antibody)
# Details: PBM: 15 mM Tris-HCl pH 7.5, 100 mM KCl, 0.075% NP40, 7.5 mM beta-mercaptoethanol, 375 ng/ul BSA, 8 ng/ul poly(dA-dT):(dA-dT), 550 ng complex, 60 min, room …; high values mean tight binding; double strand, one strand shown; sequences stand for … in CCGGC…TTAATAGCTAAGATTACTATATCGACG
row,Sequence,binding signal (log2 normalized fluorescence)
1,TGATTCAATGTA,-0.647
2,TGAACGCAGGTA,-0.0155
3,GTACACGTGGTA,3.3
4,TGACACGTTGGA,3.03
5,TGACGCAGAGTA,-0.307
6,TGACTGCGCGTA,0.0686
7,TGATCATCCGTA,-0.232
8,TGAAGAAACGTA,-0.628
9,TGAGGACCTGTA,-0.451
10,TGAAGCTGGGTA,-0.831
11,TGCTTCGTGGTA,0.514
12,TGAATCTGGGTA,-1.05
13,TGAGGAATCGTA,-0.974
14,TGAAGCAAGGTA,0.831
15,TGACACGTTGCA,3.2
16,TGAGGAACAGTA,-0.608
17,TGAGGTATCGTA,-0.822
18,TGATAACAAGTA,-0.448
19,TGATTGAATGTA,-0.686
20,TGACGTGCAGTA,1.57
21,TGATGTGATGTA,0.229
22,TGACACGCCGTC,2.56
23,TCACGATGGGGC,2.64
24,TGACCCTTAGTA,-0.676
25,TGATTGTGGGTA,-0.261

row,Sequence,binding signal (log2 normalized fluorescence)
1,TGGGGCGTGGTA,2.78
2,TGACCGCTTGTA,-0.269
3,TGATAACTTGTA,-0.694
4,TGACCCGTTGTG,0.408
5,ATGAGTATTCGC,2.71
6,TGCCACGTGATA,3.13
7,AGCTACGTGGTA,1.88
8,TGACTTGTAGTA,-0.639
9,TGACCCCTCGTA,-0.0393
10,TGACGGGACGTA,-0.212
11,TGAAGGGGTGTA,0.559
12,TGACACGTGTTC,3.35
13,TGAGTCGGCGTA,-0.932
14,TGAGGCTTGGTA,-1.05
15,TGACACGTTCAA,2.53
16,TGAGTCACTGTA,-0.498
17,TGAACGCGGGTA,0.608
18,TGAGACATGGTA,0.82
19,TGAAGTAATGTA,-0.412
20,TGATATACTGTA,-0.836
21,TGACACGTCACA,1.65
22,TGACGGAGCGTA,-0.421
23,TGAACTACTGTA,-0.623
24,TGAGTGGGAGTA,0.00597
25,TGATCAGAAGTA,0.216

row,Sequence,binding signal (log2 normalized fluorescence)
1,TGAAGAGCGGTA,-0.757
2,TGACGCGGTGTA,0.533
3,AAACACGTGGTA,3.01
4,TGAACGGGTGTA,0.199
5,TGACAACGAGTA,0.59
6,TGAACGGCCGTA,-0.823
7,TGACCAAGCGTA,-0.281
8,TGATACGGGGTA,-0.468
9,TGAAGGGTCGTA,-0.732
10,TGACCCCTTGTA,-0.423
11,TGAAATGAAGTA,-0.767
12,TGAGGGGCAGTA,0.631
13,TGACACGTGTGC,3.4
14,TGAACCGTAGTA,-0.824
15,TGAAAATACGTA,-0.721
16,TGATTGTATGTA,-0.473
17,TGAGTTGGTGTA,-0.601
18,TGTATCGTGGTA,1.98
19,TGACTTACAGTA,-0.522
20,TGATGCTTCGTA,-0.0312
21,TGAAAGCGGGTA,-0.427
22,TGAGCCGCTGTA,-0.666
23,TAACGCGTGGTA,3.26
24,CTAGTCTAGAAT,-1.87
25,TGACTAGACGTA,-0.859

row,Sequence,binding signal (log2 normalized fluorescence)
1,TGAAACGGGGTC,0.708
2,TGATTCGCTGTA,-1.01
3,TGATGACGAGTA,-0.276
4,TGACCTAACGTA,-0.26
5,TGATGGGGAGTA,0.478
6,GATCACGTGGTA,3.19
7,TGAAACCACGTA,1.26
8,TGAAAGAATGTA,-0.112
9,TGAGTGTATGTA,0.074
10,TCACCCGTGGTA,2.54
11,TGAGTGCTAGTA,-0.0126
12,TGATTATTTGTA,-0.812
13,TGAAATACGGTA,-0.52
14,TGGTCCGTGGTA,-0.0276
15,TTCGCTCTTTGA,-1.73
16,TGACACATGGTG,2.9
17,TGATATACGGTA,-0.908
18,TGACTCCACGTA,0.671
19,TGAGCGAGGGTA,0.0182
20,AGAGACGTGGTA,1.84
21,TGACCTAGGGTA,-0.796
22,TGAGCGCACGTA,0.494
23,TGAGACTGAGTA,-0.843
24,TGAATAATGGTA,-0.711
25,TGATGCCCTGTA,-0.309

row,Sequence,binding signal (log2 normalized fluorescence)
1,TGTCACGTGGGA,3.2
2,TGACACGGTCTA,0.715
3,TGAGCCCCCGTA,-1.03
4,TGATCCCGCGTA,-0.582
5,TGAGCTTAGGTA,-1.27
6,TGAAACTATGTA,-0.464
7,TGAGTGTAGGTA,-0.311
8,TGAGGTGTTGTA,-0.544
9,TGATTCGTAGTA,-1.09
10,TGAGCTAGTGTA,-0.962
11,TGAGATGGAGTA,-0.522
12,TGATAGCGTGTA,2.05
13,TGAAAGAAAGTA,-0.892
14,TGAAGATGGGTA,-0.502
15,TGATGCGCAGTA,-0.217
16,TGATGTCCGGTA,-0.197
17,TGACCCGAGGTA,0.407
18,TGATACATCGTA,-0.0107
19,TGAACCTCTGTA,-0.609
20,TGAGTTAAGGTA,-0.884
21,TGATGAGGAGTA,-0.42
22,TGAGCTCTCGTA,-0.957
23,TGATACGTGGTA,0.871
24,TGAGCATAGGTA,-0.237
25,TGATCGACAGTA,-0.514

row,Sequence,binding signal (log2 normalized fluorescence)
1,TGACACGCGGTA,3.1
2,TGATCAGGCGTA,0.582
3,TGACTCGTGTTA,2.83
4,TGACTAGCCGTA,-1.17
5,TGAGCGAATGTA,-0.603
6,TGATTCCTAGTA,-1.08
7,TGAGGAGTAGTA,-0.971
8,TGACAAGTGGAG,0.717
9,TGAGGGCGAGTA,-0.462
10,TGACTGTTGGTA,-0.43
11,TGAGAGACAGTA,-0.843
12,TGATGCCCCGTA,-0.267
13,TGAGAAACAGTA,-0.85
14,TGAGGTGTAGTA,-0.642
15,TGAATCTGAGTA,-1.09
16,TGACGATCTGTA,-0.62
17,GGACAGGTGGGA,2.85
18,TGGCACGAGGTA,3.26
19,TGAACCGCAGTA,-0.485
20,TGAGAAAGTGTA,-0.805
21,TGATATTCTGTA,-1.35
22,TGAATAGACGTA,-0.987
23,TGATGGTTGGTA,-0.0272
24,TGACAGGTAGTA,0.00138
25,TGAGTGATAGTA,-0.499

row,Sequence,binding signal (log2 normalized fluorescence)
1,TGACGAGCTGTA,-0.604
2,TGAGTCCCCGTA,-0.873
3,TGAAAGCAAGTA,-0.0584
4,TGAACATGTGTA,2.94
5,TGACAGGGGGTA,1.72
6,TGAGCGCCAGTA,-0.611
7,TGAATCCGTGTA,-0.163
8,TGAACAATCGTA,-0.744
9,TGAAAGGGTGTA,0.113
10,TGATGAATAGTA,-0.405
11,TGATAGAGCGTA,-0.987
12,TGAAGGACTGTA,-0.606
13,TGAGCCAAAGTA,-1.15
14,TGAGGTGGAGTA,-0.433
15,TGAGTCATTGTA,-0.599
16,TGATAGCGCGTA,-0.144
17,TGACAAGCAGTA,-0.299
18,TGACTGATTGTA,-0.283
19,TGTCACGTGATA,3.2
20,TGAACAAATGTA,0.00639
21,TGACTAAACGTA,-0.587
22,TGATCAGCAGTA,-0.121
23,TGAGGACTAGTA,-1.02
24,TGACTCACCGTA,0.242
25,TGAAATTTCGTA,-1.02

row,Sequence,binding signal (log2 normalized fluorescence)
1,TGATACGTGGTG,1.24
2,GGACCCGTGGTA,2.46
3,TGAGCTACAGTA,-0.868
4,TGAGCCACTGTA,-0.778
5,TGATGTTAAGTA,-0.116
6,TGAGGCTAAGTA,-1.21
7,TGAGTCCCGGTA,-0.855
8,TGATTCTTAGTA,-1.16
9,TGATTCACAGTA,-0.775
10,TGAGCGCGTGTA,2.88
11,TGACGCGGGGTA,0.91
12,TGACTGCCAGTA,-0.338
13,TGACCGGGTGTA,0.197
14,TTACAGGTAGTA,-0.0209
15,TGAGCGACAGTA,-0.4
16,TGAGTTGGGGTA,-0.499
17,TGAATTAAGGTA,-0.965
18,TGAAGCCGCGTA,-0.834
19,TGAAAGTCTGTA,-0.78
20,TGAAGAGGTGTA,-0.378
21,TGAACCCTAGTA,-0.686
22,TGACCCCTAGTA,-0.464
23,TGATTGAGTGTA,-0.596
24,TGATTATTGGTA,-0.994
25,TGATGTTCTGTA,-0.0796

row,Sequence,binding signal (log2 normalized fluorescence)
1,TGACCTCTAGTA,-0.689
2,TGATATATGGTA,-0.755
3,GCACACGTGCTA,3.04
4,TGAGTCTGTGTA,-0.957
5,TGCCACGCGGTG,3.23
6,TGACACGGCTTA,0.66
7,TGAGGTACAGTA,-0.893
8,TGAGTAGTGGTA,-0.298
9,TGACGTTCGGTA,-0.219
10,TGATAGTCCGTA,-1.13
11,TGAACACTCGTA,0.0034
12,TGACCACCGGTA,0.83
13,TGAACACGTGTA,3.24
14,TGAATCGCAGTA,-0.846
15,TGAAACTTAGTA,-0.884
16,TGACTGGCCGTA,-0.589
17,TGACCCTAGGTA,-0.618
18,TGAGACTTGGTA,-1.15
19,TGAAGCGTGGTA,3.04
20,TGAGGAGACGTA,-0.678
21,TGAACGAGAGTA,-0.412
22,TGACCAGCTGTA,0.294
23,TGAAATCAGGTA,-0.576
24,TGACCTAAAGTA,-0.586
25,TGACCACCTGTA,2.52

row,Sequence,binding signal (log2 normalized fluorescence)
1,TGAAGAGCAGTA,-0.755
2,TGACACGAGTTA,2.78
3,TGACGTTGGGTA,-0.416
4,TGAAGGTTCGTA,-0.61
5,TGAAATGGGGTA,0.322
6,TGATTACGTGTA,0.238
7,TGACACGCCTTA,2.72
8,TGATAAAATGTA,-0.899
9,TGAGCCATTGTA,-0.773
10,TGAACACCAGTA,0.0132
11,GCACACTTGGTA,2.75
12,TGACTATGTGTA,-0.204
13,TGAATGGAGGTA,0.176
14,TGACGGCCTGTA,-0.00025
15,TGACCGAAGGTA,-0.41
16,TGAACCCTGGTA,-0.595
17,TGAGAAAAGGTA,-0.923
18,TGACCGTAGGTA,-0.615
19,TGAATCCATGTA,0.0473
20,TGATGTCAGGTA,-0.106
21,TGACAGCGGGTA,0.704
22,TGAGAACACGTA,0.443
23,TGACCAGCCGTA,-0.437
24,TGAACTCTCGTA,-0.499
25,CGACATGTGGTG,3.43

row,Sequence,binding signal (log2 normalized fluorescence)
1,TGATCCCCCGTA,-0.597
2,TGAGGAAAAGTA,-0.511
3,TGAGCGATTGTA,-0.93
4,AGATACGTGGTG,1.38
5,TGAGCTGCAGTA,0.0121
6,TGAAATCAAGTA,-0.702
7,TGACGCATGGTA,2.99
8,TGATAAAACGTA,-0.705
9,TGATGACGCGTA,0.0312
10,TGAACTCAAGTA,-0.476
11,GCCTAGTTGTGC,-0.921
12,AAACACGTTGTA,3.31
13,TGACATTGCGTA,0.358
14,TGAAACACAGTA,-0.00176
15,TAACACGTAGTA,1.92
16,TGAAGGGCCGTA,-0.515
17,AGACACTTAGTA,0.466
18,TGAATACAGGTA,-0.531
19,TGATTTGTTGTA,-1.32
20,TGACATAAGGTA,0.803
21,TGATCAGATGTA,0.894
22,TGACGGGTAGTA,-0.586
23,TGAGGGGGCGTA,1.87
24,TGATGGCTTGTA,0.135
25,TGATATCGAGTA,-0.79
